# According to PubChem BioAssay AID686979 (National Center for Advancing Translational Sciences (NCATS), 2013):
# Several values for one entry are separate records, joined by “and”; a condition that tells them apart may be missing. Identical values can stand only once. Out of some 420,000 compounds screened, about 50,000 (12%) were called active. The shares of active, inactive and inconclusive entries below differ from those in the screen. Calls come from the whole dose curve; as a rule, active = well fitted inhibition curve with a large enough effect; inconclusive = small, poorly fitted or top-dose-only effect; inactive = flat fitted curve, though single readings scatter. Where the call is inconclusive, the potency comes from a doubtful curve fit.
# Assay: qHTS for Inhibitors of human tyrosyl-DNA phosphodiesterase 1 (TDP1): qHTS in cells in presence of CPT; note: nearly all actives have a fitted effect of over 55% in size
# Conditions: chicken DT40 Tdp1-/-;hTDP1 cells + 20 nM CPT, ATP luminescence, 48 h; activity change, negative = growth inhibition: at 46.2 µM (top of the series) unless noted
# In short: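 Chicken DT40 Tdp1-/- cells stably complemented with human TDP1 were seeded at 400 cells/well in medium containing 20 nM camptothecin, exposed to pin-transferred compounds, and grown at 37 °C for at least 48 hr. Viability was read as ATP luminescence.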
# % is set by controls: 0 for no effect and ±100 for the full control effect; potency is the fitted concentration of half-maximal effect; tags give direction and shape of the fitted curve.
SMILES,Potency,"activity change, negative = growth inhibition"
CC(C)CNC(=O)c1cccc(NC(=O)COc2cccc([N+](=O)[O-])c2)c1,"inconclusive: 23.1 µM [inhibitor, single point]",
COc1ccc(-c2nnc(NC(=O)C3CCCO3)s2)cc1 (stereo unspecified),inactive,
O=S(=O)(Nn1cnnc1)c1ccccc1,inactive,
CCOC(=O)N/C(N)=N/c1nc2ccccc2s1,"inconclusive: 23.1 µM [inhibitor, single point]",
c1cc2c3c(cccc3c1)NN=N2,"inconclusive: 16.4 µM [inhibitor, single point]",
C=CCn1c(SCC(=O)Nc2ccc3c(c2)OCO3)nnc1-c1ccccc1O,"inconclusive: 25.1 µM [inhibitor, single point]",
CCCc1ccc(OCC(O)CN2CCN(c3ccccc3)CC2)cc1 (stereo unspecified),"inconclusive: 18.4 µM [inhibitor, single point] and inconclusive: 23.1 µM [inhibitor, partial curve, poor fit]",
CCN(CC(=O)NC(C)(C)C)C(=O)c1cccc(S(=O)(=O)N2CC3(C)CC2CC(C)(C)C3)c1 (stereo unspecified),"inconclusive: 29.1 µM [inhibitor, single point]",
Cc1ccc(-n2c(O)c(/C=N/Nc3ccc(S(=O)(=O)N4CCOCC4)cc3[N+](=O)[O-])c3ccccc3c2=O)c(C)c1,active: 20.6 µM,
CCOc1ccc(N(CC(=O)NCc2ccc(Cl)cc2)S(=O)(=O)c2c(C)noc2C)cc1,"inactive and inconclusive: 25.9 µM [inhibitor, single point]",
Cc1noc(C)c1C(=O)N1CCC(Cc2ccccc2)CC1,"inconclusive: 23.1 µM [inhibitor, single point]",
Cc1ccc2nc(-c3ccc(C)c(NC(=O)COc4ccc(Br)cc4)c3)oc2c1,"inconclusive: 2.24 µM [inhibitor, full curve, poor fit]",
CN1C(=O)NC(c2ccccc2)C2=C1CN(c1cccc(C(F)(F)F)c1)C2=O (stereo unspecified),,inconclusive: -30.9% [inhibitor]
Cc1c2c(nc3ccccc13)CCC(C(C)(C)C)C2 (stereo unspecified),"inconclusive: 29.1 µM [inhibitor, single point]",
Cc1c(C=O)c2ccccn2c1C(=O)c1ccncc1,"inconclusive: 12.6 µM [inhibitor, single point]",
O=C(CNc1ccc(Cl)c(C(F)(F)F)c1)N1CCN(S(=O)(=O)c2ccccc2)CC1,"inconclusive: 16.4 µM [inhibitor, partial curve]",
CCCCn1nnnc1C(c1ccccc1)N1CCN(c2ncc(C(F)(F)F)cc2Cl)CC1 (stereo unspecified),"inconclusive: 29.1 µM [inhibitor, single point]",
Cc1ccc(CNC(=O)C2CCCN(S(=O)(=O)N3CC(C)CC(C)C3)C2)cc1 (stereo unspecified),inactive,
Cc1cc(NC(=O)Nc2csc3c2CCCC3)ccc1Br,active: 8.2 µM,
COCCCNC(=O)C1CCC(Cn2c(=O)c3sccc3n(Cc3ccc(F)cc3)c2=O)CC1 (stereo unspecified),inactive,
O=C(CCn1cccn1)Nc1ccc(-c2ccno2)cc1,inactive,
Cc1cccc(N2CCN(C(=O)c3oc(=O)c4ccccc4c3-c3ccccc3)CC2)c1C,"inconclusive: 29.1 µM [inhibitor, single point]",
Cc1ccc(CN(Cc2ccco2)S(=O)(=O)c2ccc(S(=O)(=O)NCC3CCCO3)cc2)cc1 (stereo unspecified),"inconclusive: 29.1 µM [inhibitor, single point]",
Cc1c(NC(=O)c2ccc(N3CCC(C)CC3)c([N+](=O)[O-])c2)cccc1-c1nc2ccccc2o1,"inconclusive: 18.4 µM [inhibitor, partial curve]",

SMILES,Potency,"activity change, negative = growth inhibition"
Cc1ccc(C(=O)Nc2ccc(OCc3cc(=O)n4c5c(sc4n3)CCCC5)cc2)cc1,"inconclusive: 0.184 µM [inhibitor, full curve, poor fit]",
Cc1ccc(Sc2cc(Cl)nc(N)n2)cc1,inactive,
CN(C)c1nc2c(N)ncnc2n1[C@H]1O[C@@H](CO)[C@H](O)[C@@H]1O,inactive,
Cc1cccc(C)c1NC(=O)C(c1cc2ccccc2o1)N1CCC(c2ccccc2)CC1 (stereo unspecified),active: 16.4 µM,
COc1ccc(NC(=O)N2CC3(CCN(C(=O)c4ccncc4)CC3)C2)cc1,inactive,
O=S(=O)(c1ccccc1)C1CC1(c1ccccc1)c1ccccc1 (stereo unspecified),"inconclusive: 29.1 µM [inhibitor, single point]",
Cc1cccc(NC(=S)N2CCC(NC(=O)C3CCCCC3)CC2)c1,inactive,
COc1cccc(N2CCN(C(=O)c3ccccc3SCC(=O)NCc3ccco3)CC2)c1,"inconclusive: 18.4 µM [inhibitor, single point]",
O=C(O)CCCC(=O)Nc1nc(-c2ccc(F)cc2)cs1,inactive,
C[C@@H]1CN([C@@H](C)CO)C(=O)c2cc(NC(=O)Nc3ccc(F)cc3)ccc2O[C@@H]1CN(C)Cc1ccc(Oc2ccccc2)cc1,"inconclusive: 23.1 µM [inhibitor, single point]",
COCc1nnc(NC(=O)CCC2CCCCC2)s1,,inconclusive: -31.1% [inhibitor]
CCCN1CNc2c(c(=O)[nH]c(=S)n2CCc2cc(C)cc(C)c2)C1,"inconclusive: 35.5 µM [inhibitor, single point]",
O=[N+]([O-])c1ccc(COc2cccc(CN3CCCC3)c2)cc1,"inconclusive: 32.6 µM [inhibitor, single point]",
CCC(CC)c1nnc(NC(=O)c2ccc(N3CCCCC3)c([N+](=O)[O-])c2)s1,"inconclusive: 23.1 µM [inhibitor, single point]",
COc1ccc(OC)c(C(O)c2ncc(-c3ccccc3OC)[nH]2)c1 (stereo unspecified),"inconclusive: 29.1 µM [inhibitor, single point]",
O=C(Nc1ccccc1C(=O)NC(Cc1ccccc1)C(=O)NC1CCCCC1)c1ccccc1 (stereo unspecified),"inconclusive: 25.9 µM [inhibitor, single point]",
COC(=O)c1c(C)sc(-c2c(-c3cccc(Cl)c3)[nH]c3c2c(=O)[nH]c(=O)n3C)c1O,"inconclusive: 29.1 µM [inhibitor, single point]",
COc1cccc(C(=O)NCC(=O)N2CCC(C)CC2)c1,inactive,
CNC(=O)COC(=O)Cc1ccc(Cl)cc1,inactive,
Cc1ccc(Sc2ccc(NC(=O)c3ccc(F)cc3)cc2C#N)cc1,"inconclusive: 20.6 µM [inhibitor, partial curve]",
COCCNC(=O)c1c(N)n(-c2cccc(C)c2)c2nc3ccccc3nc12,"inconclusive: 29.1 µM [inhibitor, single point]",
CCCNc1cc(=S)nc(N)[nH]1,"inconclusive: 29.1 µM [inhibitor, single point]",
Cc1cc(C)c(-c2cc(C)nc3ncnn23)c(C)c1,inactive,
Cc1cc(C)cc(NC(=O)c2sc3nc(-c4cc5ccccc5oc4=O)[nH]c(=O)c3c2C)c1,"inconclusive: 29.1 µM [inhibitor, single point]",

SMILES,Potency,"activity change, negative = growth inhibition"
O=C(NCCc1ccccc1)/C(=C\c1ccc([N+](=O)[O-])cc1)NC(=O)c1ccco1,"inconclusive: 23.1 µM [inhibitor, single point]",
c1ccc(COn2nnc3ccccc32)c(COn2nnc3ccccc32)c1,active: 18.4 µM,
COc1ccc(NC(=S)Nc2ccc3nsnc3c2)cc1,active: 6.51 µM,
Cc1cc(S(=O)(=O)Nc2ccc3c(c2)n(C)c(=O)n3C)ccc1F,active: 20.6 µM,
C[C@H]1CN([C@@H](C)CO)C(=O)Cc2cc(NC(=O)CCC(F)(F)F)ccc2O[C@H]1CN(C)S(=O)(=O)c1ccc(Cl)cc1,active: 5.17 µM,
Cn1c(NC(=O)c2cccs2)c(-c2cccs2)c(=O)c2ccccc21,active: 23.1 µM,
COc1ccccc1NC(=S)NCc1ccc2c(c1)cc(C)n2C,active: 16.4 µM,
COc1ccc2nc(NC(=O)C3CCN(C(=O)c4ccc(F)cc4)CC3)sc2c1,"inconclusive: 23.1 µM [inhibitor, single point]",
c1ccc(N2CCN(Cc3ccnc4ccccc34)CC2)cc1,active: 25.9 µM,
CCCCOc1ccc(C(=O)Nc2cc(C)c(OCC(=O)N3CCOCC3)c(C)c2)cc1,"inconclusive: 25.9 µM [inhibitor, single point]",
COc1ccc(-c2noc(N3CCN(c4cccc(C)c4C)CC3)n2)cc1OC,active: 18.4 µM,
COc1cc(OC)c(C(=O)Nc2ccncc2)cc1OC,inactive,
Cc1ccc(OCc2ccc(-c3nc(C#N)c(N4CCC(C)CC4)o3)o2)cc1,"inconclusive: 20.6 µM [inhibitor, single point]",
C=CCOC(=O)COc1ccc2c3c(c(=O)oc2c1)CCCC3,inactive,
COc1ccccc1N1CCN(C(=O)c2cc3c(s2)CCC3)CC1,"inconclusive: 16.4 µM [inhibitor, partial curve, poor fit]",
COc1ccc(CCNC(=O)CCc2c(C)nc3c(c(C)nn3-c3ccccc3)c2C)c(OC)c1,active: 23.1 µM,
Cc1cccc(N(C)C(=S)Oc2ccc3c(c2)CCC3)c1,inactive,
CC1OC(CCc2cccc(Cl)c2)Cc2[nH][nH]c(=O)c21 (stereo unspecified),inactive,
Cc1cccc(NC(=O)CN2CCN(C(=O)c3c(C)nn(Cc4ccccc4)c3C)CC2)c1C,inactive,
Cc1nc2ccccc2n1CCCOc1ccccc1,"inconclusive: 20.6 µM [inhibitor, partial curve]",
COc1ccc(-c2csc(NC(=O)CC(NC(C)=O)c3ccccc3)n2)cc1OC (stereo unspecified),"inconclusive: 29.1 µM [inhibitor, single point]",
CC1CCCC(NC(=O)CN(C)CC(=O)Nc2cccc(F)c2)C1C (stereo unspecified),inactive,
O=C(Nc1ccccc1O)c1ccc(C(=O)c2ccccc2)o1,"inconclusive: 16.4 µM [inhibitor, partial curve]",
